Measurements as given in PubChem BioAssay AID485364 (National Center for Advancing Translational Sciences (NCATS), 2010).
Several values for one entry are separate records, joined by “and”; a condition that tells them apart may be missing. Identical values can stand only once. Hit rate of the full screen: of about 360,000 compounds, about 11,000 (3.1%) were called active. The inconclusive results got no clear call from the source; some entries with a clear call stand among them for comparison. Calls come from the whole dose curve; as a rule, active = well fitted inhibition curve with a large enough effect; inconclusive = small, poorly fitted or top-dose-only effect; inactive = no such curve, though single readings can be large or run the other way. Potencies of inconclusive entries are left out as doubtful fits.
Note: nearly all actives have a fitted effect of over 60% in size.
Potency is the fitted concentration of half-maximal effect; tags give direction and shape of the fitted curve.

Each compound was assayed against Schistosoma mansoni thioredoxin glutathione reductase (TGR) (UniProt Q962Y6) (assay: qHTS Assay for the Inhibitors of Schistosoma Mansoni Peroxiredoxins). Settings: purified TGR, DTNB reduction, TNB absorbance 405 nm; series mostly up to 114 µM.
Outline: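 Kinetic colorimetric format: TGR-catalysed, NADPH-driven DTNB reduction monitored via TNB absorbance. Enzyme dispensed at 20 nM; compound exposure 15 min at room temperature before reaction start.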
In the case of `CCOc1ccc(NC(=O)CC2C(=O)N(C)C(=S)N2Cc2ccco2)cc1` (stereo not given), the Potency is reported as inconclusive [inhibitor, single point]. `O=C1c2ccccc2-c2onc3c(Br)cc(NC4CCCCC4)c1c23` was tested, and the Potency was inconclusive [inhibitor, partial curve]. In the case of `CCc1nnc(NCn2nc(C)cc2C)s1`, the Potency is reported as inconclusive [inhibitor, partial curve]. `COc1cc(Nc2ccc(S(=O)(=O)N3CCN(C)CC3)cc2[N+](=O)[O-])cc(OC)c1` was tested, and the Potency was “inactive”. `Cc1cccc(Sc2c([N+](=O)[O-])ncn2C)n1` was tested, and the Potency was inconclusive [inhibitor, full curve, poor fit]. For `S=C(NCc1ccccn1)Nc1ccccc1Cl`, the Potency was “inactive”. In the case of `Cc1cc(NC(=O)c2ccccc2Cl)ccc1NC(=O)c1ccccc1`, the Potency is reported as “inactive”. `COc1cc(C2c3c(-c4c(C)cc(C)cc4O)n[nH]c3C(=O)N2CCO)cc(OC)c1OC` (stereo not given) was tested, and the Potency was “inactive”. For `CC(=O)CCc1oc2ccc(C)cc2c1Cc1ccccc1`, the Potency was inconclusive [inhibitor, partial curve]. `COc1ccc(-c2csc(NC(=O)C3CC(=O)N(Cc4ccco4)C3)n2)cc1` (stereo not given) was tested, and the Potency was active: 35.5 µM. For `Cc1ccc(CN(C(=O)COc2ccc(Cl)c(C)c2)c2ccccn2)o1`, the Potency was “inactive”. `COCCCNC(=O)c1ccc(N(C)S(C)(=O)=O)cc1` was tested, and the Potency was active: 28.2 µM. With `O=c1oc2ccccc2nc1/C=C(O)/C=C\c1ccccc1` the Potency was inconclusive [inhibitor, partial curve]. `COCCNC(=O)C(C)N1c2cccc3cccc(c23)S1(=O)=O` (stereo not given) was tested, and the Potency was inconclusive [inhibitor, partial curve]. With `CSc1ccc(CCNC(=O)CS(=O)(=O)Cc2nc(-c3ccccc3F)oc2C)cc1` the Potency was inconclusive [inhibitor, partial curve, poor fit]. In the case of `COC(=O)C1=C(C)N(C(C)c2ccccc2)C(=O)/C1=C\c1ccco1` (stereo not given), the Potency is reported as active: 31.6 µM. `COC(=O)c1cc(C)nc2c1C(=O)C(=O)C=C2N1CCOCC1` was tested, and the Potency was inconclusive [inhibitor, partial curve]. With `Cc1cc(NS(=O)(=O)c2ccc(NC(=S)NC(=O)c3ccncc3)cc2)no1` the Potency was inconclusive [inhibitor, full curve]. With `O=C(CCC(=O)N1CCN(c2ccc(O)cc2)CC1)c1cccs1` the Potency was active: 56.2 µM. In the case of `O=C(CCC(=O)N1CCc2ccccc21)Nc1ccccc1`, the Potency is reported as inconclusive [inhibitor, partial curve]. `CC(C)CCCN1C(Nc2ccccc2)=NC[C@@H]1CC(C)C` was tested, and the Potency was “inactive”. `COc1ccccc1CNC(=O)COc1cc(=O)n(C)c2ccccc12` was tested, and the Potency was “inactive”. In the case of `CCCCC(c1nnnn1Cc1ccco1)N1CCN(c2nc3ccccc3s2)CC1` (stereo not given), the Potency is reported as inconclusive [inhibitor, partial curve]. For `O=[N+]([O-])c1cccc(C2Nc3cccc4cccc(c34)N2)c1`, the Potency was active: 35.5 µM. `COc1ccc(N(CC(=O)NC2CCCCCC2)S(=O)(=O)c2c(C)nn(C)c2C)cc1` was tested, and the Potency was “inactive”. `COC(=O)c1ccc(COc2ccc(/C=N/Nc3cccc(C(=O)O)c3)cc2)cc1` was tested, and the Potency was inconclusive [inhibitor, partial curve]. `CC1(C)CC(=O)C2=C(C1)OC(N)=C(C#N)C21CCC2(CC1)OCCO2` was tested, and the Potency was active: 22.4 µM. For `Cc1ccc(C(=O)Oc2cccc(NC(=O)c3ccco3)c2)cc1S(=O)(=O)N1CCC(C)CC1`, the Potency was inconclusive [inhibitor, partial curve, poor fit]. `COc1ccccc1Cn1cc(C(=O)c2ccc(Cl)cc2)c(=O)c2cc3c(cc21)OCCO3` was tested, and the Potency was “inactive”. For `COc1ccc(OC)c(C2Nc3ccccc3NC3=C2C(=O)CC(C)(C)C3)c1` (stereo not given), the Potency was “inactive”. For `Cc1cc(C(=O)CSc2n[nH]c(N)n2)c(C)n1-c1cccc(F)c1`, the Potency was inconclusive [inhibitor, partial curve]. In the case of `O=C(c1ccc(COc2c(F)c(F)c(F)c(F)c2F)o1)N1CCN(Cc2ccc3c(c2)OCO3)CC1`, the Potency is reported as inconclusive [inhibitor, partial curve]. With `CCOC(=O)C1=C(C)NC(=O)/C1=C\N(C)C` the Potency was active: 20 µM. With `COc1ccccc1N1CC(C(=O)Nc2nc(C)cs2)CC1=O` (stereo not given) the Potency was inconclusive [inhibitor, single point]. For `CCCn1c(=NC(=O)c2ccco2)c(C(=O)OCC)cc2c(=O)n3ccccc3nc21`, the Potency was inconclusive [inhibitor, partial curve, poor fit]. For `COc1ccc(-n2c(Cc3cccn3C)nnc2SCC(=O)Nc2ccc3c(c2)OCCO3)cc1`, the Potency was inconclusive [inhibitor, partial curve]. With `O=C(C[n+]1cc(-c2ccccc2)n2c1CCC2)N1c2ccccc2Sc2ccccc21` the Potency was “inactive”. With `COC(=O)C1=C(C)OC(N)=C(C#N)C1c1cc(OC)c(OCC(N)=O)cc1Cl` (stereo not given) the Potency was inconclusive [inhibitor, partial curve]. `Cc1ccc(-c2nnc(NC(=O)c3ccc4c(c3)OCCO4)o2)c(C)c1` was tested, and the Potency was inconclusive [inhibitor, single point]. `COc1ccc(N2CCN(C(=S)Nc3ccccc3)CC2)cc1` was tested, and the Potency was “inactive”. For `Nc1c(Cl)ncnc1N/N=C/c1ccncc1`, the Potency was active: 44.7 µM. `CC(C)C(=O)Nc1cc(=O)[nH]c2ncnn12` was tested, and the Potency was inconclusive [inhibitor, full curve, poor fit]. For `Cc1nc(S(=O)(=O)c2cccc(Cl)c2)nc2c1CCC2`, the Potency was inconclusive [inhibitor, partial curve, poor fit]. With `CC(C)(C)c1cc(C(=O)NCc2ccco2)ccn1` the Potency was inconclusive [inhibitor, partial curve]. `C=CCNC(=O)CSc1nc2scc(-c3ccco3)c2c(=O)n1CC=C` was tested, and the Potency was active: 39.8 µM. `COc1cccc(C(=O)CSc2nnc(-c3ccco3)n2CC2CCCO2)c1` (stereo not given) was tested, and the Potency was inconclusive [inhibitor, partial curve]. In the case of `COc1cccc(CCNC(=O)CC2C(=O)NCCN2CC(C)(C)C)c1` (stereo not given), the Potency is reported as inconclusive [inhibitor, partial curve]. `Cc1ccccc1-n1c(O)c(C(c2ccncc2)c2c(O)n(-c3ccccc3C)c(=O)[nH]c2=O)c(=O)[nH]c1=O` was tested, and the Potency was active: 1.41 µM and active: 1.12 µM. With `O=C1/C(=C/c2cccnc2)SC(=S)N1N1CCOCC1` the Potency was active: 2.82 µM. With `COc1cc(Cl)c(C)cc1Nc1nc2ccccc2nc1NS(=O)(=O)c1ccccc1` the Potency was “inactive”. In the case of `C=CC[n+]1c(/C=C/c2ccc(OC(C)=O)c(OC)c2)ccc2ccccc21`, the Potency is reported as inconclusive [inhibitor, partial curve]. With `CCOC(=O)C1(CCc2ccccc2)CCN(C2CCSCC2)CC1` the Potency was active: 11.2 µM. In the case of `CCC1(C2=NCCN2)Cc2ccccc2O1` (stereo not given), the Potency is reported as “inactive”. `CC(C(=O)N1CCCCC1)n1ncn2cccc2c1=O` (stereo not given) was tested, and the Potency was inconclusive [inhibitor, single point]. `O=C(CCS(=O)(=O)c1ccc(Br)cc1)NCCc1ccccc1` was tested, and the Potency was active: 50.1 µM. For `O=C(NN1C(=O)c2ccccc2NC1c1ccc([N+](=O)[O-])o1)c1ccc([N+](=O)[O-])cc1` (stereo not given), the Potency was inconclusive [inhibitor, full curve]. In the case of `CCOC(=O)c1cc(CNC(=O)c2c(C)oc3c2CCCC3)c(C)o1`, the Potency is reported as active: 22.4 µM. With `COc1cccc(N2CCN(CC(=O)NC(=O)NCc3ccco3)CC2)c1` the Potency was inconclusive [inhibitor, partial curve]. With `NC(=O)NC(=O)Nc1ccccc1Cl` the Potency was “inactive”. In the case of `Cc1cc(C)cc(NC(=O)COc2coc(CN3CCc4ccccc43)cc2=O)c1`, the Potency is reported as inconclusive [inhibitor, partial curve]. In the case of `CCN(c1ncnc2c1cnn2-c1cc(Cl)ccc1C)C1CCCCC1`, the Potency is reported as “inactive”. With `O=C(O)c1cc(Cl)c2c(c1)[C@@H]1C=CC[C@@H]1[C@H](c1ccc(S(=O)(=O)N3CCOCC3)cc1)N2` the Potency was active: 14.1 µM. In the case of `COc1ccc(CCN(C(=O)c2ccc(F)cc2)C2=CC3CCC(C2)N3C)cc1OC` (stereo not given), the Potency is reported as inconclusive [inhibitor, full curve, poor fit]. With `O=C(CC1C(=O)N(c2ccc(F)cc2)C(=O)N1Cc1ccc2c(c1)OCO2)Nc1ccc(F)cc1` (stereo not given) the Potency was “inactive”. In the case of `CC(=O)c1sc(N/N=C2\CC3CC2C(C)C3(C)C)nc1C` (stereo not given), the Potency is reported as active: 1.58 µM. In the case of `COc1ccccc1NC(=O)COC(=O)COc1ccccc1F`, the Potency is reported as inconclusive [inhibitor, partial curve]. For `COCCCN(C(=S)NC(=O)C(C)(C)C)c1c(N)n(Cc2ccccc2)c(=O)[nH]c1=O`, the Potency was “inactive”. `O=C(O)c1ccc(-n2cc(-c3cc4ccccc4oc3=O)[nH]c2=S)cc1` was tested, and the Potency was inconclusive [inhibitor, partial curve]. `CCCCCC(=O)NC(=S)Nc1cccc(C(C)=O)c1` was tested, and the Potency was inconclusive [inhibitor, partial curve]. `CC1(C)CCSC(/C=C/c2ccccc2)=N1` was tested, and the Potency was active: 17.8 µM. In the case of `COc1ccc(C)cc1NC(=O)CN1C(=O)c2ccccc2S1(=O)=O`, the Potency is reported as “inactive”. In the case of `CC(=O)n1cc(N(C(=O)CCl)c2ccc([N+](=O)[O-])cc2)c2ccccc21`, the Potency is reported as active: 0.708 µM. `Cc1oc2ncn(C)c(=O)c2c1C(=O)NCc1ccccc1` was tested, and the Potency was “inactive”. `COc1ccc(CN2CCNC(=O)C2CC(=O)NCc2ccc(C)s2)c(OC)c1` (stereo not given) was tested, and the Potency was active: 31.6 µM. `O=C(c1cnn2c(C(F)F)cc(-c3ccccc3)nc12)N1CCN2CCCC2C1` (stereo not given) was tested, and the Potency was inconclusive [inhibitor, partial curve].
